# Experimental data taken from the supplement of paper PMC8728848.
# The list shows a part of the results.
# B1: Pwp2 (Candida glabrata) (protein)
# chain: MGSSHHHHHHSSGLVPRGSHMASKNPVELNNVCTFPNDYGRIPGFTVLVGRLGLLISASDYKELLRYPGAFLIATQDTMTTSPNFELTGFPFFTGLYGLTVFPLDLLVELRGYFVPPNSGQYTFTLSDSDDAAIIFLGNPSAFPCGDLQNWPKPSEEDITVTDHLFPSRTLYLIEGVAYPMRIAYYNGIGAGRLNAAFIDPSGTRHTNWEGYIWQYDPCSTCTYS
# How the values were obtained:
# Assay in all cases: glycan array binding signal (z-score within array); higher = stronger binding
# Conditions in all cases: glycan notation: IUPAC condensed, linker removed
# [1] = target: Gal(b1-3)GlcNAc(b1-2)Man(a1-3)[Gal(b1-3)GlcNAc(b1-2)Man(a1-6)]Man(b1-4)GlcNAc(b1-4)[Fuc(a1-6)]GlcNAc
# Summary of the method: (§1)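 Columns mapping to the same glycan were averaged after glycan names were converted to IUPAC-condensed notation. The data come from 3228 arrays in the Consortium for Functional Glycomics database, limited to those with an available protein sequence. Binding is reported as a within-array Z-score averaged across arrays of one protein sequence and across linkers.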
# [2] = target: Gal(b1-3)GlcNAc(b1-2)Man(a1-3)[GlcNAc(b1-4)][Gal(b1-3)GlcNAc(b1-2)Man(a1-6)]Man(b1-4)GlcNAc(b1-4)GlcNAc
# Summary of the method: as §1
# [3] = target: Gal(b1-3)GlcNAc(b1-2)[Gal(b1-3)GlcNAc(b1-6)]Man(a1-6)[Gal(b1-3)GlcNAc(b1-2)Man(a1-3)]Man(b1-4)GlcNAc(b1-4)GlcNAc
# Summary of the method: as §1
# [4] = target: Gal(b1-3)GlcNAc(b1-3)Gal(b1-3)GlcNAc
# Summary of the method: as §1
# [5] = target: Gal(b1-3)GlcNAc(b1-3)Gal(b1-4)Glc
# Summary of the method: as §1
# [6] = target: Gal(b1-3)GlcNAc(b1-3)Gal(b1-4)GlcNAc
# Summary of the method: as §1
# [7] = target: Gal(b1-3)GlcNAc(b1-3)Gal(b1-4)GlcNAc(b1-2)Man(a1-3)[Gal(b1-3)GlcNAc(b1-3)Gal(b1-4)GlcNAc(b1-2)Man(a1-6)]Man(b1-4)GlcNAc(b1-4)GlcNAc
# Summary of the method: as §1
# [8] = target: Gal(b1-3)GlcNAc(b1-3)Gal(b1-4)GlcNAc(b1-2)[Gal(b1-3)GlcNAc(b1-3)Gal(b1-4)GlcNAc(b1-6)]Man(a1-6)[Gal(b1-3)GlcNAc(b1-3)Gal(b1-4)GlcNAc(b1-2)Man(a1-3)]Man(b1-4)GlcNAc(b1-4)[Fuc(a1-6)]GlcNAc
# Summary of the method: as §1
# [9] = target: Gal(b1-3)GlcNAc(b1-3)Gal(b1-4)GlcNAc(b1-3)Gal(b1-4)GlcNAc(b1-2)[Gal(b1-3)GlcNAc(b1-3)Gal(b1-4)GlcNAc(b1-3)Gal(b1-4)GlcNAc(b1-6)]Man(a1-6)[Gal(b1-3)GlcNAc(b1-3)Gal(b1-4)GlcNAc(b1-3)Gal(b1-4)GlcNAc(b1-2)Man(a1-3)]Man(b1-4)GlcNAc(b1-4)[Fuc(a1-6)]GlcNAc
# Summary of the method: as §1
# [10] = target: Gal(b1-3)GlcNAc(b1-3)Gal(b1-4)GlcNAc(b1-6)[Gal(b1-3)GlcNAc(b1-3)]Gal(b1-4)Glc
# Summary of the method: as §1
# [11] = target: Gal(b1-3)GlcNAc(b1-3)Gal(b1-4)[Fuc(a1-3)]GlcNAc
# Summary of the method: as §1
# [12] = target: Gal(b1-3)GlcNAc(b1-3)Gal(b1-4)[Fuc(a1-3)]GlcNAc(b1-6)[Gal(b1-3)GlcNAc(b1-3)]Gal(b1-4)Glc
# Summary of the method: as §1
# [13] = target: Gal(b1-3)GlcNAc(b1-3)GalNAc
# Summary of the method: as §1
# [14] = target: Gal(b1-3)GlcNAc(b1-6)Gal(b1-4)GlcNAc
# Summary of the method: as §1
# [15] = target: Gal(b1-3)GlcNAc(b1-6)GalNAc
# Summary of the method: as §1
# [16] = target: Gal(b1-3)GlcNAc(b1-6)[Gal(b1-3)]GalNAc
# Summary of the method: as §1
# Gal(b1-3)GlcNAc6S = target: Gal(b1-3)GlcNAc6S
# Summary of the method: as §1
# [17] = target: Gal(b1-3)[Fuc(a1-4)]GlcNAc
# Summary of the method: as §1
# [18] = target: Gal(b1-3)[Fuc(a1-4)]GlcNAc(b1-2)Man
# Summary of the method: as §1
# [19] = target: Gal(b1-3)[Fuc(a1-4)]GlcNAc(b1-2)Man(a1-3)[Gal(b1-3)[Fuc(a1-4)]GlcNAc(b1-2)Man(a1-6)]Man(b1-4)GlcNAc(b1-4)[Fuc(a1-6)]GlcNAc
# Summary of the method: as §1
# [20] = target: Gal(b1-3)[Fuc(a1-4)]GlcNAc(b1-3)Gal(b1-3)[Fuc(a1-4)]GlcNAc
# Summary of the method: as §1
# [21] = target: Gal(b1-3)[Fuc(a1-4)]GlcNAc(b1-3)Gal(b1-4)[Fuc(a1-3)]GlcNAc
# Summary of the method: as §1
# [22] = target: Gal(b1-3)[Fuc(a1-4)]GlcNAc(b1-6)GalNAc
# Summary of the method: as §1
# [23] = target: Gal(b1-3)[GlcNAc(b1-6)]GalNAc
# Summary of the method: as §1
# [24] = target: Gal(b1-3)[Neu5Ac(a2-6)]GalNAc
# Summary of the method: as §1
# [25] = target: Gal(b1-3)[Neu5Ac(a2-6)]GlcNAc(b1-4)Gal(b1-4)Glc
# Summary of the method: as §1
# [26] = target: Gal(b1-3)[Neu5Ac(b2-6)]GalNAc
# Summary of the method: as §1
# Gal(b1-4)Gal = target: Gal(b1-4)Gal
# Summary of the method: as §1
# [27] = target: Gal(b1-4)GalNAc(a1-3)[Fuc(a1-2)]Gal(b1-4)GlcNAc
# Summary of the method: as §1
# [28] = target: Gal(b1-4)GalNAc(b1-3)[Fuc(a1-2)]Gal(b1-4)GlcNAc
# Summary of the method: as §1
# Gal(b1-4)Glc = target: Gal(b1-4)Glc
# Summary of the method: as §1
# Gal(b1-4)Glc6S = target: Gal(b1-4)Glc6S
# Summary of the method: as §1
# Gal(b1-4)GlcNAc = target: Gal(b1-4)GlcNAc
# Summary of the method: as §1
# [29] = target: Gal(b1-4)GlcNAc(a1-6)Gal(b1-4)GlcNAc
# Summary of the method: as §1
# Gal(b1-4)GlcNAc(b1-2)Man = target: Gal(b1-4)GlcNAc(b1-2)Man
# Summary of the method: as §1
# [30] = target: Gal(b1-4)GlcNAc(b1-2)Man(a1-3)Man(b1-4)GlcNAc(b1-4)GlcNAc
# Summary of the method: as §1
# [31] = target: Gal(b1-4)GlcNAc(b1-2)Man(a1-3)[Gal(b1-4)GlcNAc(b1-2)Man(a1-6)]Man(b1-4)GlcNAc(b1-4)GlcNAc
# Summary of the method: as §1
# [32] = target: Gal(b1-4)GlcNAc(b1-2)Man(a1-3)[Gal(b1-4)GlcNAc(b1-2)Man(a1-6)]Man(b1-4)GlcNAc(b1-4)[Fuc(a1-6)]GlcNAc
# Summary of the method: as §1
# [33] = target: Gal(b1-4)GlcNAc(b1-2)Man(a1-3)[Gal(b1-4)GlcNAc(b1-2)Man(a1-6)][Gal(b1-4)GlcNAc(b1-4)]Man(b1-4)GlcNAc(b1-4)[Fuc(a1-6)]GlcNAc
# Summary of the method: as §1
# [34] = target: Gal(b1-4)GlcNAc(b1-2)Man(a1-3)[Gal(b1-4)GlcNAc(b1-2)Man(a1-6)][GlcNAc(b1-4)]Man(b1-4)GlcNAc(b1-4)[Fuc(a1-6)]GlcNAc
# Summary of the method: as §1
# [35] = target: Gal(b1-4)GlcNAc(b1-2)Man(a1-3)[GlcNAc(b1-2)Man(a1-6)]Man(b1-4)GlcNAc(b1-4)GlcNAc
# Summary of the method: as §1
# [36] = target: Gal(b1-4)GlcNAc(b1-2)Man(a1-3)[GlcNAc(b1-4)][Gal(b1-4)GlcNAc(b1-2)Man(a1-6)]Man(b1-4)GlcNAc(b1-4)GlcNAc
# Summary of the method: as §1
# [37] = target: Gal(b1-4)GlcNAc(b1-2)Man(a1-3)[Man(a1-6)]Man(b1-4)GlcNAc(b1-4)GlcNAc
# Summary of the method: as §1
# [38] = target: Gal(b1-4)GlcNAc(b1-2)Man(a1-6)Man(b1-4)GlcNAc(b1-4)GlcNAc
# Summary of the method: as §1
# [39] = target: Gal(b1-4)GlcNAc(b1-2)Man(a1-6)[GlcNAc(b1-2)Man(a1-3)]Man(b1-4)GlcNAc(b1-4)GlcNAc
# Summary of the method: as §1
binder,measurement,setting,value
B1,glycan array binding signal (z-score),[1],3.56
same,glycan array binding signal (z-score),[2],-0.217
same,glycan array binding signal (z-score),[3],-0.285
same,glycan array binding signal (z-score),[4],-0.554
same,glycan array binding signal (z-score),[5],-0.117
same,glycan array binding signal (z-score),[6],-0.3
same,glycan array binding signal (z-score),[7],-0.283
same,glycan array binding signal (z-score),[8],0.209
same,glycan array binding signal (z-score),[9],1.07
same,glycan array binding signal (z-score),[10],-0.399
same,glycan array binding signal (z-score),[11],-0.462
same,glycan array binding signal (z-score),[12],-0.639
same,glycan array binding signal (z-score),[13],-0.542
same,glycan array binding signal (z-score),[14],-0.526
same,glycan array binding signal (z-score),[15],0.159
same,glycan array binding signal (z-score),[16],-0.444
same,glycan array binding signal (z-score),Gal(b1-3)GlcNAc6S,-0.087
same,glycan array binding signal (z-score),[17],1.68
same,glycan array binding signal (z-score),[18],-0.524
same,glycan array binding signal (z-score),[19],0.329
same,glycan array binding signal (z-score),[20],0.792
same,glycan array binding signal (z-score),[21],-0.082
same,glycan array binding signal (z-score),[22],0.385
same,glycan array binding signal (z-score),[23],-0.842
same,glycan array binding signal (z-score),[24],-0.199
same,glycan array binding signal (z-score),[25],-0.428
same,glycan array binding signal (z-score),[26],-0.405
same,glycan array binding signal (z-score),Gal(b1-4)Gal,-0.485
same,glycan array binding signal (z-score),[27],-0.362
same,glycan array binding signal (z-score),[28],-0.465
same,glycan array binding signal (z-score),Gal(b1-4)Glc,-0.439
same,glycan array binding signal (z-score),Gal(b1-4)Glc6S,-0.503
same,glycan array binding signal (z-score),Gal(b1-4)GlcNAc,-0.286
same,glycan array binding signal (z-score),[29],0.426
same,glycan array binding signal (z-score),Gal(b1-4)GlcNAc(b1-2)Man,-0.448
same,glycan array binding signal (z-score),[30],-0.448
same,glycan array binding signal (z-score),[31],-1.15
same,glycan array binding signal (z-score),[32],-0.46
same,glycan array binding signal (z-score),[33],-0.627
same,glycan array binding signal (z-score),[34],-0.477
same,glycan array binding signal (z-score),[35],0.19
same,glycan array binding signal (z-score),[36],-0.617
same,glycan array binding signal (z-score),[37],-0.014
same,glycan array binding signal (z-score),[38],1.94
same,glycan array binding signal (z-score),[39],-0.358
